Experimental findings from publication PMC12820563, “FoxP3 forms a head-to-head dimer in vivo and stabilizes its multimerization on adjacent microsatellites” are described below.

Some of the results follow.

This test addresses T1, MBP-FoxP1dN (Mus musculus, UniProt P58462 326-579).
T1 sequence: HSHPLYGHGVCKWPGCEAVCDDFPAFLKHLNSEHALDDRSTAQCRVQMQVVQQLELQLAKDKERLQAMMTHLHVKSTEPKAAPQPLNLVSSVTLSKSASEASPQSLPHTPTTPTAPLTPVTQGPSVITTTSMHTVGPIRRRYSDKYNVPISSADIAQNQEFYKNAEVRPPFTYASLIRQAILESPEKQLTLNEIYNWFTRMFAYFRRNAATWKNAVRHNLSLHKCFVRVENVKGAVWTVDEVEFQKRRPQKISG
In words: PD-seq (MBP pull-down with sequencing); 20 mM Tris-HCl pH 7.5, 100 mM NaCl, 1.5 mM MgCl2, 0.4 uM protein, 0.1 uM dsDNA library, 30 min, room temperature, amylose pull-down; high values mean tight binding. To be noted: protein: recombinant; tags: His6-MBP; chain copies: 2; dsDNA, one strand shown. A digest of the protocol: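 A degenerate double-stranded DNA library, filled in with Klenow, was added at 0.1 µM to 0.4 µM His6-MBP-tagged mouse FoxP3 or FoxP1 fragment lacking the N-terminus, expressed in E. coli. Incubation lasted 30 min at room temperature in Tris pH 7.5 buffer with NaCl and MgCl2, after which complexes were collected on amylose resin, washed three times, digested with proteinase K to free the DNA, barcoded by PCR and sequenced by Illumina. Binding is the pooled-replicate reads-per-million enrichment of pull-down over input.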
As to “GATGATTGTTCTCCCAGCTGATGAATTAACGAAATCGAGTAAACAAATTTTCCTAATCTTTCTGTTCAAGCGCCATCTAC”, the binding signal was 1.16 RPM ratio (pull-down/input).

Consider “GATGATTGTTCTCCCAGCTGATGAATTGCTTGAGTCGAGTAAACAAATTTTCCTAATCTTTCTGTTCAAGCGCCATCTAC”, for which the binding signal is 0.997 RPM ratio (pull-down/input). On to “GATGATTGTTCTCCCAGCTGATGAATTCCGATTTTCGAGTAAACAAATTTTCCTAATCTTTCTGTTCAAGCGCCATCTAC”, for which the binding signal was 0.901 RPM ratio (pull-down/input). As to “GATGATTGTTCTCCCAGCTGATGAATTGGTTCAGTCGAGTAAACAAATTTTCCTAATCTTTCTGTTCAAGCGCCATCTAC”, the binding signal is 0.952 RPM ratio (pull-down/input). Regarding “GATGATTGTTCTCCCAGCTGATGAATTTGGGGGTTCGAGTAAACAAATTTTCCTAATCTTTCTGTTCAAGCGCCATCTAC”, the binding signal was 0.753 RPM ratio (pull-down/input). The value for “GATGATTGTTCTCCCAGCTGATGAATTAAGACGGTCGAGTAAACAAATTTTCCTAATCTTTCTGTTCAAGCGCCATCTAC” was 0.805 RPM ratio (pull-down/input). The value for “GATGATTGTTCTCCCAGCTGATGAATTGTATAAATCGAGTAAACAAATTTTCCTAATCTTTCTGTTCAAGCGCCATCTAC” was 1.24 RPM ratio (pull-down/input). The value for “GATGATTGTTCTCCCAGCTGATGAATTTGCATGCTCGAGTAAACAAATTTTCCTAATCTTTCTGTTCAAGCGCCATCTAC” was 1.09 RPM ratio (pull-down/input); that for “GATGATTGTTCTCCCAGCTGATGAATTGTCCGTATCGAGTAAACAAATTTTCCTAATCTTTCTGTTCAAGCGCCATCTAC” was 0.944 RPM ratio (pull-down/input); that for “GATGATTGTTCTCCCAGCTGATGAATTTTAATGGTCGAGTAAACAAATTTTCCTAATCTTTCTGTTCAAGCGCCATCTAC” was 0.9 RPM ratio (pull-down/input). In the case of “GATGATTGTTCTCCCAGCTGATGAATTGGGGAGATCGAGTAAACAAATTTTCCTAATCTTTCTGTTCAAGCGCCATCTAC”, the binding signal is 0.797 RPM ratio (pull-down/input). “GATGATTGTTCTCCCAGCTGATGAATTGTATGACTCGAGTAAACAAATTTTCCTAATCTTTCTGTTCAAGCGCCATCTAC”: the binding signal is 0.974 RPM ratio (pull-down/input). The value for “GATGATTGTTCTCCCAGCTGATGAATTTATACGATCGAGTAAACAAATTTTCCTAATCTTTCTGTTCAAGCGCCATCTAC” was 1.12 RPM ratio (pull-down/input); that for “GATGATTGTTCTCCCAGCTGATGAATTGGCTTAGTCGAGTAAACAAATTTTCCTAATCTTTCTGTTCAAGCGCCATCTAC” was 0.844 RPM ratio (pull-down/input).

Turning to “GATGATTGTTCTCCCAGCTGATGAATTCGACGTATCGAGTAAACAAATTTTCCTAATCTTTCTGTTCAAGCGCCATCTAC”, the binding signal was 1.03 RPM ratio (pull-down/input). To “GATGATTGTTCTCCCAGCTGATGAATTCTTTGAATCGAGTAAACAAATTTTCCTAATCTTTCTGTTCAAGCGCCATCTAC” belongs 0.931 RPM ratio (pull-down/input); to “GATGATTGTTCTCCCAGCTGATGAATTTACTGCCTCGAGTAAACAAATTTTCCTAATCTTTCTGTTCAAGCGCCATCTAC”, 1.06 RPM ratio (pull-down/input).

For “GATGATTGTTCTCCCAGCTGATGAATTCTATCTGTCGAGTAAACAAATTTTCCTAATCTTTCTGTTCAAGCGCCATCTAC”, the binding signal was 0.875 RPM ratio (pull-down/input).

Regarding “GATGATTGTTCTCCCAGCTGATGAATTAAGCGAGTCGAGTAAACAAATTTTCCTAATCTTTCTGTTCAAGCGCCATCTAC”, the binding signal is 0.873 RPM ratio (pull-down/input). Regarding “GATGATTGTTCTCCCAGCTGATGAATTCGTTCGCTCGAGTAAACAAATTTTCCTAATCTTTCTGTTCAAGCGCCATCTAC”, the binding signal is 0.836 RPM ratio (pull-down/input). On to “GATGATTGTTCTCCCAGCTGATGAATTGAATTCATCGAGTAAACAAATTTTCCTAATCTTTCTGTTCAAGCGCCATCTAC”, for which the binding signal is 1.02 RPM ratio (pull-down/input).

For “GATGATTGTTCTCCCAGCTGATGAATTGTTTAGCTCGAGTAAACAAATTTTCCTAATCTTTCTGTTCAAGCGCCATCTAC”, the binding signal is 1.89 RPM ratio (pull-down/input). On to “GATGATTGTTCTCCCAGCTGATGAATTTCTGTATTCGAGTAAACAAATTTTCCTAATCTTTCTGTTCAAGCGCCATCTAC”, for which the binding signal was 1.3 RPM ratio (pull-down/input).

Regarding “GATGATTGTTCTCCCAGCTGATGAATTTATATGTTCGAGTAAACAAATTTTCCTAATCTTTCTGTTCAAGCGCCATCTAC”, the binding signal was 1.27 RPM ratio (pull-down/input). In the case of “GATGATTGTTCTCCCAGCTGATGAATTAATGGTCTCGAGTAAACAAATTTTCCTAATCTTTCTGTTCAAGCGCCATCTAC”, the binding signal is 0.879 RPM ratio (pull-down/input).

Turning to “GATGATTGTTCTCCCAGCTGATGAATTCAGGCCTTCGAGTAAACAAATTTTCCTAATCTTTCTGTTCAAGCGCCATCTAC”, the binding signal is 0.84 RPM ratio (pull-down/input). The value for “GATGATTGTTCTCCCAGCTGATGAATTCATAAATTCGAGTAAACAAATTTTCCTAATCTTTCTGTTCAAGCGCCATCTAC” was 1 RPM ratio (pull-down/input); that for “GATGATTGTTCTCCCAGCTGATGAATTTCTATGATCGAGTAAACAAATTTTCCTAATCTTTCTGTTCAAGCGCCATCTAC” was 0.89 RPM ratio (pull-down/input). On to “GATGATTGTTCTCCCAGCTGATGAATTCTGTAATTCGAGTAAACAAATTTTCCTAATCTTTCTGTTCAAGCGCCATCTAC”, for which the binding signal was 0.951 RPM ratio (pull-down/input).

Consider “GATGATTGTTCTCCCAGCTGATGAATTAGACGAGTCGAGTAAACAAATTTTCCTAATCTTTCTGTTCAAGCGCCATCTAC”, for which the binding signal was 0.902 RPM ratio (pull-down/input). The value for “GATGATTGTTCTCCCAGCTGATGAATTTGGCGCATCGAGTAAACAAATTTTCCTAATCTTTCTGTTCAAGCGCCATCTAC” was 1.19 RPM ratio (pull-down/input); that for “GATGATTGTTCTCCCAGCTGATGAATTAGGCGAGTCGAGTAAACAAATTTTCCTAATCTTTCTGTTCAAGCGCCATCTAC” was 0.822 RPM ratio (pull-down/input); that for “GATGATTGTTCTCCCAGCTGATGAATTGCCTGTATCGAGTAAACAAATTTTCCTAATCTTTCTGTTCAAGCGCCATCTAC” was 1.11 RPM ratio (pull-down/input).

Take “GATGATTGTTCTCCCAGCTGATGAATTTATCAAGTCGAGTAAACAAATTTTCCTAATCTTTCTGTTCAAGCGCCATCTAC”: the binding signal was 0.966 RPM ratio (pull-down/input).

As for “GATGATTGTTCTCCCAGCTGATGAATTATACACTTCGAGTAAACAAATTTTCCTAATCTTTCTGTTCAAGCGCCATCTAC”, the binding signal is 1.15 RPM ratio (pull-down/input). As to “GATGATTGTTCTCCCAGCTGATGAATTAACCTCATCGAGTAAACAAATTTTCCTAATCTTTCTGTTCAAGCGCCATCTAC”, the binding signal was 0.942 RPM ratio (pull-down/input).

As to “GATGATTGTTCTCCCAGCTGATGAATTGTACGAGTCGAGTAAACAAATTTTCCTAATCTTTCTGTTCAAGCGCCATCTAC”, the binding signal was 0.927 RPM ratio (pull-down/input). As to “GATGATTGTTCTCCCAGCTGATGAATTTCTTTCATCGAGTAAACAAATTTTCCTAATCTTTCTGTTCAAGCGCCATCTAC”, the binding signal is 0.939 RPM ratio (pull-down/input). On to “GATGATTGTTCTCCCAGCTGATGAATTAACGATGTCGAGTAAACAAATTTTCCTAATCTTTCTGTTCAAGCGCCATCTAC”, for which the binding signal was 0.979 RPM ratio (pull-down/input). The value for “GATGATTGTTCTCCCAGCTGATGAATTTCTAAGGTCGAGTAAACAAATTTTCCTAATCTTTCTGTTCAAGCGCCATCTAC” was 0.771 RPM ratio (pull-down/input).
